# Reference: PubChem BioAssay AID686979 (National Center for Advancing Translational Sciences (NCATS), 2013)
# Screen size: about 420,000 compounds; about 50,000 (12%) were called active. This list was built around the results that the source calls inconclusive (neither active nor inactive); the mix of calls is not that of the screen. The call rests on the fitted dose curve; in most records, active means well fitted inhibition curve with a large enough effect; inconclusive means small, poorly fitted or top-dose-only effect; inactive means flat fitted curve, though single readings scatter. No potency is given beside an inconclusive call; the fits are too rough.
# Assay: qHTS for Inhibitors of human tyrosyl-DNA phosphodiesterase 1 (TDP1): qHTS in cells in presence of CPT; further: nearly all actives have a fitted effect of over 55% in size
# Settings: chicken DT40 Tdp1-/-;hTDP1 cells + 20 nM CPT, ATP luminescence, 48 h; activity change, negative = growth inhibition: at 46.2 µM (top of the series) unless noted
# Summary of the method: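 Chicken DT40 Tdp1-/- cells complemented with human TDP1, 400 cells/well, exposed to compounds plus 20 nM camptothecin for at least 48 h at 37 C; viability read as ATP content by CellTiter-Glo luminescence.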
# On the % scale 0 is the no-effect control and ±100 the full control effect; potency means the concentration at half of the fitted maximal effect; tags describe the fitted curve by direction and shape.
Compound,Potency,"activity change, negative = growth inhibition"
O=C1CCCN1c1ccc(S(=O)(=O)O)cc1 (tested in a mixture with another compound),inactive,
C[C@]12CC3CC(N)(C1)C[C@@](C)(C3)C2,"inconclusive [inhibitor, single point]",
Cc1nn(C(C)(C)C)c(C)c1/C=N/OC(=O)Nc1ccc(Cl)cc1,"inconclusive [inhibitor, single point]",
CCOc1ccc(Nc2c(S(=O)(=O)c3ccc(C)cc3)cnc3ccc(F)cc23)cc1,"inconclusive [inhibitor, single point]",
O=C(Nc1ccc2nc(-c3cccs3)c(-c3cccs3)nc2c1)NC1CC1,"inconclusive [inhibitor, partial curve]",
COc1ccc(S(=O)(=O)N(C)C[C@H]2Oc3c(NC(=O)NC4CCCCC4)cccc3C(=O)N([C@H](C)CO)C[C@@H]2C)cc1,"inconclusive [inhibitor, single point]",
COc1ccc(-c2ccc(OC)c(OC)c2OC)cc1,active: 14.6 µM,
C#CCN[C@H](C)Cc1ccccc1,inactive,
O=C1NC(=S)NC(=O)C1=Cc1cccn1-c1ccc(O)cc1,active: 3.66 µM,
COc1ccc(OC)c(N2C(=O)NC(=O)C3(Cc4cc(C)ccc4N(C)C3)C2=O)c1 (centres undefined),"inconclusive [inhibitor, single point]",
Cc1ccc(N2C(=O)NC(=O)/C(=C\c3cnc(-c4ccccc4)nc3)C2=O)cc1,"inconclusive [inhibitor, single point]",
CCOc1cc(CN2CCN(C(=O)Cc3ccccc3)CC2)ccc1OC,inactive,
O=C1NC(=O)N(Cc2ccccc2)C(=O)C1Cc1ccccc1 (centres undefined),inactive,
CC(C)CCNc1nnnc2c1sc1nc(N3CCOCC3)c3c(c12)CC(C)(C)SC3,active: 23.1 µM,
Cc1ccccc1NC(=O)CCl,active: 18.4 µM,
O=c1[nH]c2ccccc2n1C1CCN(C(c2ccccc2OC(F)(F)F)c2nnnn2Cc2ccccc2)CC1 (centres undefined),active: 10.3 µM,
c1ccc(P(c2ccccc2)c2ccccn2)cc1,active: 5.17 µM,
COc1ccc(C(CC(=O)N2CCC3(CC2)OCCO3)NS(=O)(=O)c2ccc(C)cc2)cc1 (centres undefined),inactive,
C=C[C@H](Cc1ccccc1)N(Cc1ccccc1)S(=O)(=O)N(Cc1ccccc1)[C@H](C=C)Cc1ccccc1,"inconclusive [inhibitor, single point]",
C=CCN=C(SCC(=O)c1ccc(Cl)cc1)c1c(O)n(C)c(=O)n(C)c1=O,"inconclusive [inhibitor, single point]",
CCC1(O)CCC2C3CCC4=CC(=O)CCC4C3CCC21CC (centres undefined),active: 23.1 µM,
Cc1cc(C(=O)CN2CCCC2)c(C)n1-c1ccc(F)cc1,"inconclusive [inhibitor, single point]",

Compound,Potency,"activity change, negative = growth inhibition"
CC/C(=N\Nc1cccc2ccccc12)c1c(O)[nH]c(=O)[nH]c1=O,active: 5.17 µM,
CCCCN(C(C)=O)c1ccc2c(c1)C1CC2CCN1Cc1ccccc1 (centres undefined),"inconclusive [inhibitor, single point]",
COc1ccc(NC(=O)N2CCC3(CC2)OCCO3)c(OC)c1,inactive,
CCOc1ccc(C(=O)OC2CC3CCC(C2)N3C)cc1 (centres undefined),inactive,
O=C(C1CCC(=O)N1C1CCCCC1)N1CCC2(CC1)OCCO2 (centres undefined),inactive,
CCC(C(=O)N1C[C@H]2C[C@@H](C1)c1cccc(=O)n1C2)c1ccccc1 (some centres undefined),"inconclusive [inhibitor, single point]",
C[C@]12C=CC(=O)C=C1CC[C@@H]1C2=CC[C@]2(C)[C@@H](C(=O)CN3CCN(c4cc(N5CCCC5)nc(N5CCCC5)n4)CC3)CC[C@@H]12,active: 18.4 µM,
Cc1ccc(C(=O)N[C@@H](C)CN2C3=NC[C@H](Cc4ccccc4)N3C[C@H]2Cc2ccc(O)cc2)cc1Br,active: 14.6 µM,
CCCCNC(=O)c1c(N)n(Cc2ccc3c(c2)OCO3)c2nc3ccccc3nc12,active: 29.1 µM,
N#Cc1ccccc1Cn1cc(C(=O)C2CC2)c2ccccc21,"inconclusive [inhibitor, partial curve]",
CSc1ncc(CN2CCCC(C(=O)c3sccc3C)C2)cn1 (centres undefined),"inconclusive [inhibitor, single point]",
CCCC[C@@H](C)[C@@H](OC(=O)C[C@@H](CC(=O)O)C(=O)O)[C@H](C[C@@H](C)C[C@H](O)CCCC[C@@H](O)C[C@H](O)[C@H](C)N)OC(=O)C[C@H](CC(=O)O)C(=O)O,"inconclusive [inhibitor, single point]",
CCCCOP(=O)(OCCCC)C(O)c1ccc(Br)cc1 (centres undefined),active: 23.1 µM,
CCCCn1nnnc1C(c1cccc2ccccc12)N1CCC2(CC1)C(=O)NCN2c1ccccc1 (centres undefined),"inconclusive [inhibitor, single point]",
CCCC(C)C1(CC)C(=O)NC(=Nc2ccc(F)cc2)NC1=O (centres undefined),"inconclusive [inhibitor, single point]",
CCS(=O)(=O)Nc1ccc(C2=NN(C(=O)c3ccco3)C(c3ccc(Cl)o3)C2)cc1 (centres undefined),"inconclusive [inhibitor, single point]",
CC1N=C(c2ccccc2)c2cc(Br)ccc2NC1=O (centres undefined),,inconclusive: -36.7% [inhibitor]
COC(=O)[C@H]1[C@@H](OC(=O)c2ccccc2)C[C@@H]2CC[C@H]1N2C,"inconclusive [inhibitor, full curve, poor fit]",
CN(C)C(=O)Oc1ccc(-c2cn3cc(Cl)ccc3n2)cc1,"inconclusive [inhibitor, partial curve]",
CN(C)c1cc(N)c2c(n1)CCC2 (tested in a mixture with another compound),inactive,
CCCCn1c(C)c(C(=O)OCC)c2c(CN3CCCC3)c(O)ccc21,active: 18.4 µM,
CCC(=NCc1ccc2c(c1)OCO2)c1c(O)n(C)c(=O)n(C)c1=O,"inconclusive [inhibitor, partial curve, poor fit]",
